Measured values taken from paper PMC4336329 (PLoS ONE, 2015).
In all, about 310,000 compounds went through this assay and about 14,000 (4.5%) showed an effect of 50% or more. Effects have a minus sign here. Some of the results follow.

target: human ether-à-go-go-related gene (hERG) potassium channel (human, UniProt Q12809); assay: primary screen, population patch clamp on CHO cells stably expressing hERG
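Further: peak tail current of the secondary pulse compared with the same well before compound.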

Sequence of human ether-à-go-go-related gene (hERG) potassium channel (Q12809 whole entry, looked up): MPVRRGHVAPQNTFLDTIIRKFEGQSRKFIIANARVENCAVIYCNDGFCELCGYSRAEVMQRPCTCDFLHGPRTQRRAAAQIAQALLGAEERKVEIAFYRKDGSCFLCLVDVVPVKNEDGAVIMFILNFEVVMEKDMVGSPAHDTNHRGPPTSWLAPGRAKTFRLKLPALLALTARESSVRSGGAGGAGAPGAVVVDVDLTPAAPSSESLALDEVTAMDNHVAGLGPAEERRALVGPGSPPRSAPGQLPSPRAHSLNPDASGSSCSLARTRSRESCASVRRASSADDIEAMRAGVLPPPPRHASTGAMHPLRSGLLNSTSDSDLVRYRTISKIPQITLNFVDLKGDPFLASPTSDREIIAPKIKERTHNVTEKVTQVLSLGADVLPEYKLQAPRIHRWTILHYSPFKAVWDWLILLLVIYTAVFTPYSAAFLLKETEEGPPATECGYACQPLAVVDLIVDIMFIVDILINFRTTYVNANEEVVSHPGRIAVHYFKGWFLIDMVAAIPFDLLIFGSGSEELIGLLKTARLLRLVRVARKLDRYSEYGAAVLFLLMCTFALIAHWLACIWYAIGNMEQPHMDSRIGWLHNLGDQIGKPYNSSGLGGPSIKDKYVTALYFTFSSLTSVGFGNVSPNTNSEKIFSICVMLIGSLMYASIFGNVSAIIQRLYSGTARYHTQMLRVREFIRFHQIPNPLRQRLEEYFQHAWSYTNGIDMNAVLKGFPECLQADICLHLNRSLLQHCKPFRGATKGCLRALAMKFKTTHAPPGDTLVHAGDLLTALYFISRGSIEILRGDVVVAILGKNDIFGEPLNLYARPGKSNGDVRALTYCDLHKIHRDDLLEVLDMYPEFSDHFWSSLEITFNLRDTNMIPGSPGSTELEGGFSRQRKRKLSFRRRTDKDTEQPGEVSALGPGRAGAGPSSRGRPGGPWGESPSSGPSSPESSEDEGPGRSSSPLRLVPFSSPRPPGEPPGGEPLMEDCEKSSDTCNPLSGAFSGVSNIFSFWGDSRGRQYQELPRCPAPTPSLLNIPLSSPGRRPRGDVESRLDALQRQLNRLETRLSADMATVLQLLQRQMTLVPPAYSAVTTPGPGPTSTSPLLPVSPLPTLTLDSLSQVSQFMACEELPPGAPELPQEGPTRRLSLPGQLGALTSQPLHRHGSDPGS

Structure (SMILES) | hERG current change (%, negative = inhibition) at 10uM [%]
CS(=O)(=O)N(Cc1ccco1)CC(O)Cn1c2ccccc2c2ccccc21 (stereo not drawn) | 4.1
CCc1ccccc1NC(=O)c1ccc(Cn2cc([N+](=O)[O-])cn2)cc1 | -29.6
CCOC(=O)N1C2=NC(C(=O)OC)=C(C(=O)OC)[C@@H]3N(C)c4ccccc4[C@]23C[C@H]1C(=O)OC | 0.337
CC1CCCCN1C(=O)COC(=O)C1CCN(S(=O)(=O)c2ccc3c(c2)OCCO3)CC1 (stereo not drawn) | 10.5
CN(CC(=O)N1CCCCCC1)S(=O)(=O)c1cccc2cccnc12 | -9.23
O=C(CSc1nc2cc(Cl)ccc2o1)N1CCOCC1 | -5.79
COc1cccc(CN2CC(C(=O)NCCCn3cccn3)CCC2=O)c1 (stereo not drawn) | 6.69
COCC(=O)Nc1ccc(C)c(Cl)c1 | 14.4
CCc1cc(=O)oc2c3c(cc(OCC(=O)Nc4cccnc4)c12)OC(C)(C)CC3 | 14
COc1cc(OC)cc(C(=O)NCC(=O)OCC(=O)c2cc(OC)ccc2OC)c1 | 2.7
COc1ccc(C2CC3(O)NC(=O)C(C#N)(C3C)C2(C#N)C#N)cc1 (stereo not drawn) | 8.56
O=C(NCc1ccco1)c1cccc(NS(=O)(=O)c2cccc(F)c2)c1 | -9.1
CC(=O)c1ccc(CC2SC(N)=NC2=O)cc1 (stereo not drawn) | -2.15
O=C(CCS(=O)(=O)c1ccc(Br)cc1)NCCc1ccc(Cl)cc1 | 1.65
COc1ccc2oc(C(=O)OC(C)C(=O)Nc3ccc(N4CCOCC4)cc3)c(C)c2c1 (stereo not drawn) | -0.65
CCC(C(=O)NC1CCCC1)N(Cc1ccccc1Cl)C(=O)c1snc(C(N)=O)c1N (stereo not drawn) | -14.6
CC1CCc2c(sc(N)c2C(=O)OC(C)C)C1 (stereo not drawn) | -6.65
CC1CCCN(C(=O)CSc2nnc3ccccn23)C1 (stereo not drawn) | 4.63
CC(=O)Nc1nc(SCC(=O)Nc2nnc(C)s2)[nH]c(=O)c1NC(=O)c1cccs1 | 5.63
O=C(CN1C(=O)NC(c2ccccc2)(c2ccccc2)C1=O)c1c[nH]c2ccccc12 | 6.51
CCc1ccc2oc(=O)cc(CN3CCCCC3)c2c1 | 2.85
CCCCOCCCNCC(=O)Nc1ccc(S(N)(=O)=O)cc1 | -2.34
O=C(N/N=C/c1ccc([N+](=O)[O-])cc1)c1cc(C2CC2)nc2ccccc12 | 6.45
CCNc1oc(COc2cccc(C)c2)nc1C#N | -12.2
Cn1ccc(NS(=O)(=O)c2cc(Br)ccc2Br)n1 | 0.158
CCOC(=O)c1cc(=O)c2ccc(OCc3ccccc3)cc2o1 | 9.77
CCN(CC)S(=O)(=O)c1ccc(NC(=O)CN(c2cccc(C)c2)S(C)(=O)=O)cc1 | -6.52

Structure (SMILES) | hERG current change (%, negative = inhibition) at 10uM [%]
CS(=O)(=O)N1CCN(c2ccc([N+](=O)[O-])c(N3CCOCC3)c2)CC1 | 2.27
O=S(=O)(NCC1CCCO1)c1cc(Cl)ccc1Br (stereo not drawn) | -10.1
Cc1cccc(C(=O)OCc2cnc(Cl)s2)c1 | -8.04
CC(C)(CNC(=O)CO/N=C1/C=C2CCC3C(C(O)C[C@@]4(C)C3CC[C@]4(O)C(=O)CO)[C@@]2(C)CC1)C(O)C(=O)O (stereo partly drawn) | 11.3
COc1cc2c(cc1NC(=O)CN1CCN(S(=O)(=O)c3ccccc3F)CC1)oc1ccccc12 | 10.1
CSc1cc(-c2ccc(Cl)cc2)c(C(=O)NC(C)C)s1 | 1.07
Cc1c(C(C)(C(=O)O)c2c(C)n(C)c3ccccc23)c2ccccc2n1C | 3.83
O=C(O)CC1S/C(=N/N=C/c2ccc(-c3ccc(Cl)c([N+](=O)[O-])c3)o2)NC1=O (stereo not drawn) | 31.2
O=C(COc1ccccc1)NCc1nnc2c3ccccc3c(-c3ccccc3)nn12 | -64.6
CN(Cc1ccccc1)C(=O)c1cccc(N2C(=O)NC3CC2(C)Oc2ccccc23)c1 (stereo not drawn) | -7.89
COC(=O)c1ccccc1NC(=O)CN1C(=O)CSC1=O | -10.4
CCOc1cc2sc(N3CCC(C(=O)NCCCN4CCCC4=O)CC3)nc2cc1Br | -60.5
CC1=C(C(=O)OC2CCCCC2)C(c2ccco2)C2=C(CC(C)(C)CC2=O)N1 (stereo not drawn) | -9.3
COc1ccc(-c2cccc(C3CC=CC4C3C(=O)N(Cc3ccccc3)C4c3ccc(OC)c(Cl)c3)c2)cc1 (stereo not drawn) | 22.7
O=C(CSc1c(Cl)cccc1Cl)N1CCC(c2nc3ccccc3s2)CC1 | -0.729
O=C(Cn1c2ccccc2c(=O)c2ccccc21)Nc1ccccc1F | 1.59
C=C1CCN([C@@H](Cc2ccccc2)C(=O)N2CCOCC2)S(=O)(=O)c2ccccc21 | -8.16
O=C(c1ccco1)N1CCN(Cc2ccc(F)cc2Cl)CC1 | -16.4
COc1cccc(NC(=O)CNC(=O)c2ccc(C)cc2)c1 | 17.2
O=C(O)C1CC=C(Cl)CC1C(=O)NCc1ccccc1 (stereo not drawn) | 6.61
COc1cccc(CNC(=O)C2CCN(S(=O)(=O)c3c(C)nn(C)c3C)CC2)c1 | -0.0381
Cc1cccc(NC(=S)NNC(=O)c2csc3c2CCCC3)c1 | 19.3
O=C1CC(=O)Nc2cc(S(=O)(=O)N3CCOc4ccccc43)ccc2N1 | 24.8
Oc1ccc(Nc2nc(-c3cccnc3)cs2)cc1 | 13.7
Cc1ccc(S(=O)(=O)N2CCN(c3cccc(C)c3)CC2)cc1 | 14.4
C[C@@H](C(=O)CC(=O)OC(C)(C)C)[C@@H](O)c1ccccc1 | 27.5
COc1ccc(N2CCN(CCOc3ccc4c(C)cc(=O)oc4c3)CC2)cc1 | -26.1
